Experimental data reported in the supplement of paper PMC8728848.
The list shows a part of the results.

Columns and labels:
Test in all cases: glycan array binding signal (z-score within array); higher = stronger binding
Settings in all cases: glycan notation: IUPAC condensed, linker removed
[1] = molecular target: Fuc(a1-2)[Gal(a1-3)]Gal(b1-4)[Fuc(a1-3)]GlcNAc(b1-3)GalNAc
How it was run: (§1)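 Glycan array binding is given as a within-array Z-score, which can be read as non-binding when negative. The arrays, 3228 of them, came from the Consortium for Functional Glycomics database and were retained only where the protein sequence was available. Z-scores were averaged across arrays of the same protein sequence at different concentrations or buffers and across linkers.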

[2] = molecular target: Fuc(a1-2)[Gal(a1-4)]Gal(b1-4)GlcNAc
How it was run: as §1

[3] = molecular target: Fuc(a1-2)[GalNAc(a1-3)]Gal
How it was run: as §1

[4] = molecular target: Fuc(a1-2)[GalNAc(a1-3)]Gal(b1-3)GalNAc(a1-3)[Fuc(a1-2)]Gal(b1-4)GlcNAc
How it was run: as §1

[5] = molecular target: Fuc(a1-2)[GalNAc(a1-3)]Gal(b1-3)GalNAc(b1-3)Gal(a1-4)Gal(b1-4)Glc
How it was run: as §1

[6] = molecular target: Fuc(a1-2)[GalNAc(a1-3)]Gal(b1-3)GlcNAc
How it was run: as §1

[7] = molecular target: Fuc(a1-2)[GalNAc(a1-3)]Gal(b1-3)GlcNAc(b1-2)Man(a1-3)[Fuc(a1-2)[GalNAc(a1-3)]Gal(b1-3)GlcNAc(b1-2)Man(a1-6)]Man(b1-4)GlcNAc(b1-4)GlcNAc
How it was run: as §1

[8] = molecular target: Fuc(a1-2)[GalNAc(a1-3)]Gal(b1-3)GlcNAc(b1-2)Man(a1-3)[Fuc(a1-2)[GalNAc(a1-3)]Gal(b1-3)GlcNAc(b1-2)Man(a1-6)]Man(b1-4)GlcNAc(b1-4)[Fuc(a1-6)]GlcNAc
How it was run: as §1

[9] = molecular target: Fuc(a1-2)[GalNAc(a1-3)]Gal(b1-3)GlcNAc(b1-3)GalNAc
How it was run: as §1

[10] = molecular target: Fuc(a1-2)[GalNAc(a1-3)]Gal(b1-3)GlcNAc(b1-6)GalNAc
How it was run: as §1

[11] = molecular target: Fuc(a1-2)[GalNAc(a1-3)]Gal(b1-4)Glc
How it was run: as §1

[12] = molecular target: Fuc(a1-2)[GalNAc(a1-3)]Gal(b1-4)GlcNAc
How it was run: as §1

[13] = molecular target: Fuc(a1-2)[GalNAc(a1-3)]Gal(b1-4)GlcNAc(b1-2)Man
How it was run: as §1

[14] = molecular target: Fuc(a1-2)[GalNAc(a1-3)]Gal(b1-4)GlcNAc(b1-2)Man(a1-3)[Fuc(a1-2)[GalNAc(a1-3)]Gal(b1-4)GlcNAc(b1-2)Man(a1-6)]Man(b1-4)GlcNAc(b1-4)GlcNAc
How it was run: as §1

[15] = molecular target: Fuc(a1-2)[GalNAc(a1-3)]Gal(b1-4)GlcNAc(b1-2)Man(a1-3)[Fuc(a1-2)[GalNAc(a1-3)]Gal(b1-4)GlcNAc(b1-2)Man(a1-6)]Man(b1-4)GlcNAc(b1-4)[Fuc(a1-6)]GlcNAc
How it was run: as §1

[16] = molecular target: Fuc(a1-2)[GalNAc(a1-3)]Gal(b1-4)GlcNAc(b1-3)Gal(b1-4)GlcNAc
How it was run: as §1

[17] = molecular target: Fuc(a1-2)[GalNAc(a1-3)]Gal(b1-4)GlcNAc(b1-3)Gal(b1-4)GlcNAc(b1-3)Gal(b1-4)GlcNAc
How it was run: as §1

[18] = molecular target: Fuc(a1-2)[GalNAc(a1-3)]Gal(b1-4)GlcNAc(b1-3)GalNAc
How it was run: as §1

[19] = molecular target: Fuc(a1-2)[GalNAc(a1-3)]Gal(b1-4)GlcNAc(b1-3)[Fuc(a1-2)[GalNAc(a1-3)]Gal(b1-4)GlcNAc(b1-6)]GalNAc
How it was run: as §1

[20] = molecular target: Fuc(a1-2)[GalNAc(a1-3)]Gal(b1-4)GlcNAc(b1-6)GalNAc
How it was run: as §1

[21] = molecular target: Fuc(a1-2)[GalNAc(a1-3)]Gal(b1-4)[Fuc(a1-3)]GlcNAc
How it was run: as §1

[22] = molecular target: Fuc(a1-2)[GalNAc(a1-3)]Gal(b1-4)[Fuc(a1-3)]GlcNAc(b1-3)GalNAc
How it was run: as §1

[23] = molecular target: Fuc(a1-2)[GalNAc(a1-4)]Gal(b1-4)GlcNAc
How it was run: as §1

[24] = molecular target: Fuc(a1-2)[GalNAc(b1-3)]Gal
How it was run: as §1

[25] = molecular target: Fuc(a1-3)GlcNAc
How it was run: as §1

[26] = molecular target: Fuc(a1-3)[Gal(b1-4)]Glc6S
How it was run: as §1

[27] = molecular target: Fuc(a1-3)[Gal(b1-4)]GlcNAc
How it was run: as §1

[28] = molecular target: Fuc(a1-3)[Gal(b1-4)]GlcNAc(b1-2)Man
How it was run: as §1

[29] = molecular target: Fuc(a1-3)[Gal(b1-4)]GlcNAc(b1-2)Man(a1-3)[Fuc(a1-3)[Gal(b1-4)]GlcNAc(b1-2)Man(a1-6)]Man(b1-4)GlcNAc(b1-4)GlcNAc
How it was run: as §1

[30] = molecular target: Fuc(a1-3)[Gal(b1-4)]GlcNAc(b1-2)Man(a1-3)[Fuc(a1-3)[Gal(b1-4)]GlcNAc(b1-2)Man(a1-6)]Man(b1-4)GlcNAc(b1-4)[Fuc(a1-6)]GlcNAc
How it was run: as §1

[31] = molecular target: Fuc(a1-3)[Gal(b1-4)]GlcNAc(b1-3)Gal(b1-3)[Fuc(a1-4)]GlcNAc
How it was run: as §1

[32] = molecular target: Fuc(a1-3)[Gal(b1-4)]GlcNAc(b1-3)Gal(b1-4)[Fuc(a1-3)]GlcNAc
How it was run: as §1

[33] = molecular target: Fuc(a1-3)[Gal(b1-4)]GlcNAc(b1-3)Gal(b1-4)[Fuc(a1-3)]GlcNAc(b1-3)Gal(b1-4)[Fuc(a1-3)]GlcNAc
How it was run: as §1

[34] = molecular target: Fuc(a1-3)[Gal(b1-4)]GlcNAc(b1-3)GalNAc
How it was run: as §1

[35] = molecular target: Fuc(a1-3)[Gal(b1-4)]GlcNAc(b1-6)GalNAc
How it was run: as §1

[36] = molecular target: Fuc(a1-3)[Gal(b1-4)]GlcNAc(b1-6)[Gal(b1-3)GlcNAc(b1-3)]Gal(b1-4)Glc
How it was run: as §1

[37] = molecular target: Fuc(a1-3)[Gal(b1-4)]GlcNAc6S
How it was run: as §1

[38] = molecular target: Fuc(a1-3)[Gal3S(b1-4)]Glc
How it was run: as §1

B1: SGC, Q9M345 (protein)
chain: QNLNFTYNGFHPPLTDISLQGLATVTPNGLLKLTNTSVQKTGHAFCTERIRFKDSQNGNVSSFSTTFVFAIHSQIPTLSGHGIAFVVAPTLGLPFALPSQYIGLFNISNNGNDTNHIFAVEFDTIQSSEFGDPNDNHVGIDLNGLRSANYSTAGYRDDHDKFQNLSLISRKRIQVWIDYDNRSHRIDVTVAPFDSDKPRKPLVSYVRDLSSILLEDMYVGFSSATGSVLSEHFLVGWSFRLNGEAPMLSLSKLPKLPRFEPRRIS
glycan array binding signal (z-score) [1]: -0.317 | glycan array binding signal (z-score) [2]: -0.382 | glycan array binding signal (z-score) [3]: -0.389 | glycan array binding signal (z-score) [4]: -0.37 | glycan array binding signal (z-score) [5]: -0.372 | glycan array binding signal (z-score) [6]: -0.295 | glycan array binding signal (z-score) [7]: 0.925 | glycan array binding signal (z-score) [8]: -0.095 | glycan array binding signal (z-score) [9]: -0.247 | glycan array binding signal (z-score) [10]: -0.445 | glycan array binding signal (z-score) [11]: -0.228 | glycan array binding signal (z-score) [12]: -0.353 | glycan array binding signal (z-score) [13]: -0.4 | glycan array binding signal (z-score) [14]: 3.35 | glycan array binding signal (z-score) [15]: -0.094 | glycan array binding signal (z-score) [16]: -0.342 | glycan array binding signal (z-score) [17]: 0.209 | glycan array binding signal (z-score) [18]: -0.344 | glycan array binding signal (z-score) [19]: -0.363 | glycan array binding signal (z-score) [20]: -0.321 | glycan array binding signal (z-score) [21]: 0.152 | glycan array binding signal (z-score) [22]: 0.292 | glycan array binding signal (z-score) [23]: 1.12 | glycan array binding signal (z-score) [24]: -0.351 | glycan array binding signal (z-score) [25]: -0.371 | glycan array binding signal (z-score) [26]: -0.313 | glycan array binding signal (z-score) [27]: -0.36 | glycan array binding signal (z-score) [28]: -0.413 | glycan array binding signal (z-score) [29]: 0.55 | glycan array binding signal (z-score) [30]: 0.08 | glycan array binding signal (z-score) [31]: -0.373 | glycan array binding signal (z-score) [32]: -0.363 | glycan array binding signal (z-score) [33]: -0.373 | glycan array binding signal (z-score) [34]: -0.345 | glycan array binding signal (z-score) [35]: -0.253 | glycan array binding signal (z-score) [36]: -0.291 | glycan array binding signal (z-score) [37]: 0.111 | glycan array binding signal (z-score) [38]: -0.335
